According to PubChem BioAssay AID588855 (National Center for Advancing Translational Sciences (NCATS), 2011):
Among all 410,000 compounds or so, about 5,000 (1.2%) were called active. Inconclusive means that the source gave no clear call. Such entries were picked first, then a sample of the others. Calls follow the shape of the dose curve; as a rule, active = well fitted inhibition curve with a large enough effect; inconclusive = small, poorly fitted or top-dose-only effect; inactive = no such curve, though single readings can be large or run the other way. Potencies of inconclusive entries are doubtful fits and often do not repeat.

Test: qHTS for Inhibitors of TGF-b; also: nearly all actives have a fitted effect of over 65% in size
Settings: HepG2 CAGA-GFP TGF-b/SMAD3 reporter, GFP fluorescence, 18 h, TGF-beta stimulated, 500 pg/mL final; series mostly up to 46.1 µM
Method in brief: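 HEPG2 CAGA-GFP cells (1000/well, DMEM with 1% FBS) were pre-incubated 2 h at 37 degrees C, given compound by pin tool, then stimulated with TGF-beta at 500 pg/mL final for 18 h before per-cell GFP fluorescence imaging.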
Potency is read from the fitted curve at half-maximal effect; tags tell the direction and shape of the fitted curve.

Row | Structure (SMILES) | Potency
1 | C=CCn1c(COc2ccccc2F)nnc1SCC(=O)Nc1cc2oc3ccccc3c2cc1OC | inconclusive: 3.98 µM [inhibitor, full curve]
2 | COc1ccc(-n2c(SC)nc3sc4c(c3c2=O)CCN(C(C)=O)C4)cc1 | inactive
3 | CCOc1ccccc1N(CC(=O)NC(C)(C)C)C(=O)c1ccc(CN2CCOCC2)o1 | inconclusive: 6.31 µM [inhibitor, single point]
4 | N=C1SCC(=O)N1c1ncc(Cc2cccc(Cl)c2)s1 | inconclusive: 22.4 µM [inhibitor, single point]
5 | O=C1c2ccccc2/C(=C\C#Cc2ccccn2)N1c1ccccc1 | inactive
6 | COC(=O)c1ccc2c(c1)c(C#Cc1ccccc1)c(-c1ccccc1)n2C | inactive
7 | O=c1[nH]c(/C=C/c2ccccc2[N+](=O)[O-])nc2ccccc12 | inactive
8 | CCOC(=O)c1cnc(NCc2ccc(OC)cc2OC)c2ccccc12 | inconclusive: 6.31 µM [inhibitor, partial curve]
9 | COc1ccc(NC(=O)Nc2cccc3c2O[C@H](CN(C)C(=O)Nc2ccccc2)[C@@H](C)CN([C@H](C)CO)C3=O)cc1 | inconclusive: 0.316 µM [inhibitor, full curve, poor fit]
10 | Cc1ccc(C(=O)N2CCN(Cc3ccc4c(c3)OCO4)CC2)cc1S(=O)(=O)N1CCOCC1 | inconclusive: 35.5 µM [inhibitor, partial curve, poor fit]
11 | CC1CCN(C(=O)CCC(=O)N2CC(C)Oc3ccccc32)CC1 (stereo not drawn) | inactive
12 | Cc1ccc(-c2nc3ccccc3s2)cc1NC(=S)NC(=O)/C=C/c1ccco1 | inactive
13 | COc1ccc(OC)c(NC(=O)C2COc3ccccc3O2)c1 (stereo not drawn) | inactive
14 | O=C(c1cc(-c2cccs2)nc2ccccc12)N1CCN(c2ccccc2O)CC1 | inconclusive: 22.4 µM [inhibitor, single point]
15 | O=C(Nc1cccc(S(=O)(=O)NC2=NCCCCC2)c1)c1cc(-c2ccccc2Cl)nc2ccccc12 | inactive
16 | COc1cccc(-c2nc3c(c(SCC(=O)Nc4cccc(C)c4C)n2)Cc2c(CO)cnc(C)c2O3)c1 | inconclusive: 35.5 µM [inhibitor, single point]
17 | Oc1ccccc1CNc1cnc2ccccc2c1 | inconclusive: 20 µM [inhibitor, single point]
18 | CCS(=O)(=O)NCCc1sc2nc(-c3ccc(OC)cc3)nn2c1C | inconclusive: 0.891 µM [inhibitor, full curve, poor fit]
19 | COc1cccc(C(=O)/C=C/Nc2cccc(O)c2)c1 | inactive
20 | Cc1ccccc1-c1nsc(SCC(=O)c2ccc(Cl)cc2)n1 | inconclusive: 35.5 µM [inhibitor, single point]
21 | Cc1sc2ncnc(N/N=C/c3ccc(O)cc3)c2c1C | inactive
22 | C[n+]1cccc(C(=O)NNC(=O)C23CC4CC(CC(C4)C2)C3)c1 | inactive

Row | Structure (SMILES) | Potency
23 | CCOc1ccc(OCCCC(=O)Nc2cc(Cl)ccc2-n2cncn2)cc1 | inactive
24 | Cc1cccc(NC(=O)CCOc2ccccc2)c1 | inconclusive: 15.8 µM [inhibitor, single point]
25 | O=C1CN(C(=O)c2cccc(Br)c2)C(c2ccccc2)c2cc(Cl)ccc2N1 (stereo not drawn) | inconclusive: 35.5 µM [inhibitor, single point]
26 | CCOC(=S)SCC(=O)Nc1nc(C)c(C)s1 | inconclusive: 12.6 µM [inhibitor, partial curve, poor fit]
27 | O=C(C[C@H]1C(=O)N(Cc2cccnc2)C[C@@H]1Cc1ccccc1)Nc1ccc(Br)cc1 | inconclusive: 35.5 µM [inhibitor, single point]
28 | COc1ccc2c(c1)C(NS(=O)(=O)OCC(Cl)(Cl)Cl)CCC2 (stereo not drawn) | inconclusive: 25.1 µM [inhibitor, single point]
29 | CC(C)C(NS(=O)(=O)c1cccs1)C(=O)Nc1nc(C(C)(C)C)cs1 (stereo not drawn) | inconclusive: 35.5 µM [inhibitor, single point]
30 | CN(C(=O)COC(=O)c1cc(S(=O)(=O)N2CCOCC2)ccc1Cl)C1CCS(=O)(=O)C1 (stereo not drawn) | inconclusive: 0.794 µM [inhibitor, full curve, poor fit]
31 | COc1ccc(N(Cc2cc(=O)[nH]c3ccccc23)C(=O)CCl)cc1 | inconclusive: 15.8 µM [inhibitor, single point]
32 | COc1cc(/C=C/C(=O)/C=C(O)/C=C/c2ccc(O)c(OC)c2)ccc1O | inconclusive: 35.5 µM [inhibitor, single point]
33 | CCOC(=O)C1=C(CN(CC)Cc2ccccc2)NC(=O)NC1c1ccc(OC)cc1 (stereo not drawn) | inconclusive: 12.6 µM [inhibitor, single point]
34 | Cc1cc(NC(=O)c2cccnc2)ccc1NC(=O)c1cc2ccccc2o1 | inconclusive: 35.5 µM [inhibitor, single point]
35 | COc1ccc(C(=O)Nc2cnc3sc(C)nn3c2=O)cc1 | inactive
36 | C=C(CC[C@]12OC(C(=O)O)C(O)(C(=O)O)C(C(=O)O)(O1)C(OC(=O)/C=C/[C@@H](C)C[C@@H](C)CC)C2O)[C@@H](OC(C)=O)[C@H](C)Cc1ccccc1 (stereo partly drawn) | inactive
37 | O=C(CCS(=O)(=O)c1ccccc1)N(Cc1cccnc1)c1nc2c(F)cccc2s1 | inconclusive: 3.55 µM [inhibitor, full curve, poor fit]
38 | Fc1ccc2[nH]c3c(N4CCc5ccccc5C4)ncnc3c2c1 | inconclusive: 10 µM [inhibitor, partial curve, poor fit]
39 | COc1ccc(C(=O)c2c(C(F)(F)F)oc3c2C(=O)c2ccccc2C3=O)cc1 | inconclusive: 1.41 µM [inhibitor, full curve, poor fit]
40 | CCC(=O)Nc1ccccc1Nc1cc(C#N)c(C#N)cc1[N+](=O)[O-] | inactive
41 | COc1cccc(NC(=S)NC(=O)/C=C/c2ccco2)c1 | inconclusive: 15.8 µM [inhibitor, single point]
42 | O=C1OC(c2ccc3ccccc3c2O)(c2ccc3ccccc3c2O)c2ccccc21 | inconclusive: 2.51 µM [inhibitor, partial curve, poor fit]
43 | CCOC(=O)c1nnc2c(-c3ccc(Cl)cc3)c(C)nn2c1N | inconclusive: 35.5 µM [inhibitor, single point]
